# Source: publication PMC4336329 (PLoS ONE, 2015)
# Out of some 310,000 compounds screened, about 14,000 (4.5%) showed an effect of 50% or more. The effect is printed as a negative number. This is one part of the list.
# Molecular target: human ether-à-go-go-related gene (hERG) potassium channel (human, UniProt Q12809)
# Assay: primary screen, population patch clamp on CHO cells stably expressing hERG
# 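Further: peak tail current of the secondary pulse compared with the same well before compound.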
# Chain of human ether-à-go-go-related gene (hERG) potassium channel (Q12809 whole entry, looked up): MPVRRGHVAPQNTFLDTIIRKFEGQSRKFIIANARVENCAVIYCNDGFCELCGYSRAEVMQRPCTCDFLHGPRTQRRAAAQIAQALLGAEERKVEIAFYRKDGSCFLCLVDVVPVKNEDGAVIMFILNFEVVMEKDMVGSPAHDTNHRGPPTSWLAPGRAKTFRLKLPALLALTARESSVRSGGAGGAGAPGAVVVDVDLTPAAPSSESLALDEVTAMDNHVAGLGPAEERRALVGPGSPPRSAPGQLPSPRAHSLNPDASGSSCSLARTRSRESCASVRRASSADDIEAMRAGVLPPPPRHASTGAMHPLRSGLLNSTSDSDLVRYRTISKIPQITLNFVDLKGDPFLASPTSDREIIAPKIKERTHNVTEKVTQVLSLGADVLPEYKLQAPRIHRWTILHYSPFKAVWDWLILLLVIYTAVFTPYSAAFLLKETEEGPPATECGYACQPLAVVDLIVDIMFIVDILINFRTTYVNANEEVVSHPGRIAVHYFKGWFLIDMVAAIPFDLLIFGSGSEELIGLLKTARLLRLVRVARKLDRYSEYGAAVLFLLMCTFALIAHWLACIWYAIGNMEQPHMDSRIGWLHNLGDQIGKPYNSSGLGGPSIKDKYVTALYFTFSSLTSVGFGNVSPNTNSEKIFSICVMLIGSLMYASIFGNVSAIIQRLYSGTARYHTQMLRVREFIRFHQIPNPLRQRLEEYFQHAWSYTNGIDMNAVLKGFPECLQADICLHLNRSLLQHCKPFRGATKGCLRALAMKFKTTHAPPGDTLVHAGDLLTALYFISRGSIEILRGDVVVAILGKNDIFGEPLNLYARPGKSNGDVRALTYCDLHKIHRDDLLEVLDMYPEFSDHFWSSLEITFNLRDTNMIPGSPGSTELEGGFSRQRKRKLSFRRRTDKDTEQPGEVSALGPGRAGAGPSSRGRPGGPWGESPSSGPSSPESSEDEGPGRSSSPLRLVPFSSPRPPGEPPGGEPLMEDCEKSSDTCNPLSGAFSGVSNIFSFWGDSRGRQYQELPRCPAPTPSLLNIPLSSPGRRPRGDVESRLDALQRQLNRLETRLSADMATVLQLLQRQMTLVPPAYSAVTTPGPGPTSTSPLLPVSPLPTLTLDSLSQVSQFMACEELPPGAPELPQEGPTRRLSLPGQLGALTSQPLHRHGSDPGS
row,SMILES,"hERG current change (%, negative = inhibition) at 10uM"
1,O=C(Cc1ccc(Cl)c(Cl)c1)N/N=C/c1cccnc1,-40%
2,Cc1ccc(NC(=O)c2cc(-n3cnnc3)ccc2Cl)cc1,-15.6%
3,COc1cccc(N2C(=O)CC(Sc3nc(C)cc(C)n3)C2=O)c1 (stereo not shown),10.6%
4,COc1cc(C(=O)O/N=C(\N)c2ccccn2)cc(OC)c1OC,7.17%
5,COC(=O)/C=C/CC(C)OS(N)(=O)=O (stereo not shown),13%
6,CC/C(=N/Nc1cccc(C)c1)c1cnnc(SC)n1,8.51%
7,COc1nnc(-c2ccc(C)c(S(=O)(=O)NCC3CCCO3)c2)c2ccccc12 (stereo not shown),-69.5%
8,COc1ccc(N2CC(C(=O)NC3=NCCS3)CC2=O)cc1 (stereo not shown),2.12%
9,CC(NS(=O)(=O)c1ccccc1)C(N)=O (stereo not shown),-6.6%
10,Cc1ccc2nc3c(cc2c1)c(NC(=O)c1ccccn1)nn3CC(C)C,-9.05%
11,CCOC(=O)CC(=O)NC1(Cc2ccc(O)cc2)CCCCC1,1.06%
12,CC(C)CC1CCCCC1OC(=O)C[N+]1(C)CCCCC1.[I-] (stereo not shown),-3.45%
13,Cc1cc(C)c2c(n1)SCC(=O)N2CC(=O)Nc1ccc(C)c(C)c1,-1.35%
14,CC(=O)Nc1ccc(N/C=C/C(=O)C(C)(C)C)cc1,-4.12%
15,CCn1c(C(=O)O)c(CC(=O)Nc2ccccc2F)c2ccccc21,16%
16,Cn1cc(C(=O)Nc2ccc(Cl)cc2)c(C(F)(F)F)n1,4.82%
17,Cc1cc(C)cc(-n2c(C)cc(C(=S)N3CCOCC3)c2C)c1,-21.1%
18,CC1CCC(NC(=O)C2CCN(c3cnccn3)CC2)CC1 (stereo not shown),-3.55%
19,Cc1ccccc1NC(=O)/C=C/c1cccs1,-33.1%
20,CCCn1c(=O)c2ccccc2n2c(SCC(=O)c3ccc(CC)cc3)nnc12,-9.29%
21,S=C(NCc1ccccc1)Nc1nccs1,1.6%
22,O=C(COc1ccc(F)cc1Br)N1CCN(S(=O)(=O)/C=C/c2ccccc2)CC1,-19.7%
23,O=C(NCc1ccccn1)Nc1ccc(Br)cc1,9.62%

row,SMILES,"hERG current change (%, negative = inhibition) at 10uM"
1,ONC(=Nc1ccc(Cl)cc1)c1ccccc1,-3.76%
2,Cc1cccc(OCc2nnc(SCC(=O)Nc3cccc(C(=O)N4CCOCC4)c3)n2C)c1,13.6%
3,COC(=O)c1ccccc1NC(=O)Cn1nnc(-c2ccc3c(c2)OCO3)n1,2.29%
4,O=C(Oc1ccc(C(=S)N2CCOCC2)cc1)c1ccc([N+](=O)[O-])cc1[N+](=O)[O-],8.56%
5,CCc1c(C(=O)N/N=C/c2sccc2C)nnn1-c1nonc1N,14.9%
6,CCOc1ccccc1Nc1nc(-c2sc(C)nc2C)cs1,20.3%
7,CCOc1ccc(C(=O)Nc2c3c(nn2C(C)(C)C)CSC3)cc1OCC,-1.49%
8,CCc1noc(C)c1C(=O)N1CCN(S(=O)(=O)c2cccc(C(F)(F)F)c2)CC1,-9.29%
9,COc1ccccc1OCC(=O)Nc1ccc(S(=O)(=O)NC(C)=O)cc1,13.3%
10,O=S(=O)(Nc1c(O)ccc2ccccc12)c1ccc(F)cc1,-17.7%
11,Cc1nnc(SCC(=O)NC23CC4CC(CC(C4)C2)C3)n(N)c1=O,10.1%
12,O=C(CSc1ccc(-c2nc3ccccc3[nH]2)cn1)N1CCN(C(=O)c2ccco2)CC1,-68.4%
13,Cc1sc2ncn(CC(=O)OC(C)C(=O)NC(C)(C)C)c(=O)c2c1C (stereo not shown),12.8%
14,Cc1nn(C)c(C(=O)N/N=C/c2ccccn2)c1[N+](=O)[O-],21.3%
15,COc1ccc(C/C(O)=C(\C#N)c2nc3ccccc3[nH]2)cc1OC,21.9%
16,O=C(O)C(=O)O.c1cc2c(cc1OCCNC1CCCC1)CCC2,0.00128%
17,COc1ccc(/C=N/OCC(=O)NCc2cccs2)c(OC)c1,-0.849%
18,CCC(=O)NCc1c(C)c(C)n(Cc2ccccc2)c1-n1cccc1,0.898%
19,CCn1c(CC(=O)Nc2ccc(Cl)c(Cl)c2)nnc1SCc1ccc(Cl)cc1,5.87%
20,CCOC(=O)Cc1csc(SC(C)C(=O)NCC(=O)Nc2ccc(F)c(F)c2F)n1 (stereo not shown),14.9%
21,Cc1cc(C)cc(NC(=O)N2CCCC2C(=O)Nc2ccc(-n3cnnn3)cc2)c1 (stereo not shown),-54.1%
22,O=C(NCc1ccc(C(F)(F)F)cc1)C12CN(Cc3ccccc3)CC1C(c1cccc([N+](=O)[O-])c1)=NO2 (stereo not shown),10.2%
23,Cc1ccc2c(C(=O)N3CCN(c4ccccc4)CC3)cc(-c3cccnc3)nc2c1C,4.03%

row,SMILES,"hERG current change (%, negative = inhibition) at 10uM"
1,COc1ccc(C(=O)O)cc1S(=O)(=O)N1CCSCC1,18.4%
2,NNC(=O)c1csc(COc2cc(Cl)cc(Cl)c2)n1,12.2%
3,CC(C)CN(C(=O)c1ccco1)c1nc2ccccc2s1,17.1%
4,N#CCCN(C(=O)Cn1nc(C(=O)O)c2ccccc2c1=O)c1ccccc1,4.44%
5,c1cncc(Nc2nc(-c3cccs3)cs2)c1,0.287%
6,COc1cc(CC(=O)Nc2ccc(S(=O)(=O)Nc3ncccn3)cc2)cc(OC)c1OC,11.1%
7,CC(=O)c1ccc(OCC(O)CN2CCN(c3ccc(F)cc3)CC2)cc1.Cl (stereo not shown),-67.4%
8,COc1ccc(C)cc1N(C(=O)c1ccccc1F)c1nc2ccccc2s1,-6.53%
9,CCOC(=O)C1=NN(c2ccccc2)C2C(=O)N(c3ccccc3OC)C(=O)C12 (stereo not shown),14.5%
10,CC/C(C)=C1\SC(N2CCN(C(C)=O)CC2)=NC1=O,7.56%
11,COc1ccc(CC(NC(C)=O)C(=O)NC2CCN(C(=O)c3cnccn3)CC2)cc1 (stereo not shown),-2.32%
12,CCS(=O)(=O)c1ccc2oc(SCC(=O)NC(C)C3CC4CCC3C4)nc2c1 (stereo not shown),-30.3%
13,Cc1cccc(NS(=O)(=O)c2cc(C(=O)N3CCCCCC3)ccc2C)c1,-13.6%
14,CCCNCCC(c1ccco1)c1ccccc1OC (stereo not shown),-41.8%
15,C[C@]12CC[C@@H]3c4ccc(O)cc4CC[C@H]3[C@@H]1C[C@@H](O)[C@@H]2O[C@@H]1O[C@H](C(=O)O)[C@@H](O)[C@H](O)[C@H]1O,14.6%
16,CC(=O)OC(C)=O,15.3%
17,CCCCCCCCOc1ccc(C2CC(=O)NC2=O)cc1 (stereo not shown),8.59%
18,Cc1ccc(OCC(=O)Nc2ccc3c(c2)OCCO3)cc1C,6.88%
19,Fc1ccc(CNC(=S)Nc2ccc(Cl)cc2)cc1,9.6%
20,C[C@H](O)C(=O)C1=Nc2c(nc(N)[nH]c2=O)NC1,19.9%
21,CCC1(C)Cc2ccccc2-c2nc(SCC(N)=O)[nH]c(=O)c21 (stereo not shown),15.4%
22,Cc1ccc(NC(=O)C2Cc3ccccc3CN2C(=O)c2ccco2)cc1S(=O)(=O)N(C)C (stereo not shown),-20.2%
23,CSc1ccccc1C(=O)C1CCCN(Cc2c(C)n(C)n(-c3ccccc3)c2=O)C1 (stereo not shown),-16.2%

row,SMILES,"hERG current change (%, negative = inhibition) at 10uM"
1,CCC(Sc1nc2c(c(=O)[nH]1)CCC2)C(=O)Nc1cccc(OC)c1 (stereo not shown),-7.58%
2,C=CCNC(=O)c1ccccc1NC(=O)C1CC(=O)N(C(C)C)C1 (stereo not shown),9.7%
3,O=C(CN1CCCC1)Nc1ccc(Cl)cc1C(F)(F)F,0.32%
4,Cc1ccc(SCC(=O)Nc2ccc(N3CCOCC3)cc2)cc1C,8.9%
5,O=C(N/N=C/c1cccc([N+](=O)[O-])c1)c1cc2c(ccc3ccccc32)o1,15.7%
6,COc1ccccc1NC(=O)NNC(=O)c1cc2ccccc2cc1O,19%
7,O=C(Cc1c(C(=O)O)[nH]c2ccccc12)Nc1ccc2c(c1)OCO2,7.38%
8,Cn1c(=NC(=O)COc2ccccc2)sc2cccc(F)c21,1.94%
9,Cc1nc2ccccc2c(=O)n1NC(=O)c1cc(Br)ccc1Cl,-17.6%
10,Nn1cnc2cc3ccccc3cc2c1=O,8.16%
11,COc1ccccc1C(=O)NC(=O)COC(=O)c1ccc(C)o1,-2.16%
12,O=C(Nc1ccc(F)cc1)Oc1ccc[nH]c1=O,12%
13,CS(=O)(=O)N1CCCC(C(=O)N2CCOCC2)C1 (stereo not shown),7.7%
14,Cc1ccc(C)c(NC(=O)CN(C)S(=O)(=O)c2cccc3cccnc23)c1,-10.4%
15,CCOc1ccc(NC(=O)C2=C(C)C(=O)OC23CCC(C)CC3)cc1 (stereo not shown),-0.164%
16,CC1CN(C(=O)Nc2ccc3c(c2)OCO3)CC(C)O1 (stereo not shown),7.02%
17,CCN(CC)S(=O)(=O)c1ccc2[nH]c(=O)[nH]c2c1,-11.4%
18,CCCCCSc1nnc2c(n1)OC(C)N(C(C)=O)c1ccccc1-2 (stereo not shown),-41%
19,CCOC(=O)c1ccc(NC(=O)c2ccccc2C)cc1,-21.2%
20,O=C(CSc1nnc(-c2ccc(O)cc2)o1)Nc1ccccc1Br,20.1%
21,CCOc1ccc(NC(=O)C2CCCN(S(C)(=O)=O)C2)cc1 (stereo not shown),23.5%
22,N#CC1=C2C=CC=CN2CC1=O,2.52%
